Source: PubChem BioAssay AID588855 (National Center for Advancing Translational Sciences (NCATS), 2011)
About 5,000 (1.2%) of roughly 410,000 compounds were called active. Inconclusive results, whose numbers are uncertain, are shown with a selection of clear calls. Calls follow the shape of the dose curve; as a rule, active = well fitted inhibition curve with a large enough effect; inconclusive = small, poorly fitted or top-dose-only effect; inactive = no such curve, though single readings can be large or run the other way. Potencies beside an inconclusive call are fits to weak or partial responses and may not hold up.

experiment: qHTS for Inhibitors of TGF-b; conditions: HepG2 CAGA-GFP TGF-b/SMAD3 reporter, GFP fluorescence, 18 h, TGF-beta stimulated, 500 pg/mL final; series mostly up to 46.1 µM; also: nearly all actives have a fitted effect of over 65% in size
Procedure, shortened: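 HEPG2 CAGA-GFP reporter cells (1000/well, DMEM with 1% FBS) received compounds, then recombinant TGF-beta at 500 pg/mL final for 18 hours at 37 degrees C. Per-cell GFP summed per well was normalised to unstimulated and stimulated DMSO controls before curve fitting.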
Potency is read from the fitted curve at half-maximal effect; tags tell the direction and shape of the fitted curve.

Row | Structure (SMILES) | Potency
1 | CCCCn1c(N)c(N(CCOC)C(=O)COC(=O)CSc2cc(C)c3ccccc3n2)c(=O)[nH]c1=O | inactive
2 | Cc1ccc(-n2nc(C(=O)N3CCC(C)CC3)c(=O)n(C)c2=O)cc1 | inactive
3 | Cc1ccc(Cl)cc1-n1ncc2c(NC3CCCCCC3)ncnc21 | active: 11.2 µM
4 | COc1ccc(NC(=S)NC(=O)CC(C)C)c(OC)c1 | inactive
5 | Cc1ccccc1-n1nc2c(c1NC(=O)c1c(-c3ccccc3Cl)noc1C)CSC2 | inconclusive: 11.2 µM [inhibitor, partial curve, poor fit]
6 | Cc1ccc(C)c(Nc2nnc(-n3nc(C)cc3C)c3ccccc23)c1 | inactive
7 | N#Cc1nc(-c2cccs2)oc1NCc1ccc(Cl)cc1 | inconclusive: 35.5 µM [inhibitor, single point]
8 | Cc1ccc(-n2nc(C)c(NC(=O)CCl)c2C)cc1 | inconclusive: 8.91 µM [inhibitor, partial curve, poor fit]
9 | CCOC(=O)c1c(NC(=O)COc2ccccc2C#N)sc2c1CC(C)(C)NC2(C)C | inconclusive: 35.5 µM [inhibitor, single point]
10 | COc1ccc(OC)c(/C=C/C(=O)OCC(=O)NCc2ccccc2)c1 | inconclusive: 35.5 µM [inhibitor, single point]
11 | CCCNC(=O)COc1coc(CN2CCN(C(=O)c3ccco3)CC2)cc1=O | inconclusive: 5.62 µM [inhibitor, single point]
12 | COc1cccc(O)c1CN1CCCC(C(=O)c2cccc(C(F)(F)F)c2)C1 (centres undefined) | active: 15.8 µM
13 | CC(C)(C)OC(=O)N1CCC(c2c(C(=O)N3CCN(C(=O)c4ccco4)CC3)cnn2-c2cccc(F)c2)CC1 | inactive
14 | Cc1c(NS(=O)(=O)c2cc(C(=O)NCC3CCCO3)cc(Cl)c2Cl)c(=O)n(-c2ccccc2)n1C (centres undefined) | inactive
15 | O=C(CSc1ccccn1)Nc1cccc([N+](=O)[O-])c1 | inconclusive: 35.5 µM [inhibitor, single point]
16 | COc1cc(C(=O)Nc2ccc3nc(SCc4ccc(C)cc4)sc3c2)cc(OC)c1OC | inconclusive: 12.6 µM [inhibitor, partial curve]
17 | CN(C)CC(C(=O)c1ccccc1)c1ccccc1 (centres undefined) | active: 3.98 µM
18 | COc1cc(/C=C/C(=O)c2cccc([N+](=O)[O-])c2)cc(OC)c1OC | inconclusive: 5.01 µM [inhibitor, single point]
19 | COC(=O)c1[nH]nc(C(=O)OC(C)(C)C)c1-c1ccccc1 | inconclusive: 25.1 µM [inhibitor, single point]
20 | CCCNC(=O)CCn1c(=S)oc2ccccc21 | inconclusive: 3.16 µM [inhibitor, partial curve]
21 | Fc1ccc(C(Nc2ccccn2)c2c[nH]c3ccccc23)cc1 (centres undefined) | inconclusive: 35.5 µM [inhibitor, single point]
22 | Cc1ccc(SCc2nc3ccccc3[nH]2)cc1 | inconclusive: 35.5 µM [inhibitor, single point]
23 | CCC(C(=O)Nc1cc(Cl)ccc1OC)n1nc(-c2ccccc2)ccc1=O (centres undefined) | inconclusive: 15.8 µM [inhibitor, single point]

Row | Structure (SMILES) | Potency
24 | CCOC(=O)c1cc2c(n(-c3ccc(C)cc3)c1=O)CCCC2=O | inactive
25 | CC1=C(c2ccc(C)c(C)c2)S(=O)(=O)N(Cc2ccc(C(=O)NCc3cccc(C)c3)cc2)C1=O | inactive
26 | O=C(Nc1cccc2ccccc12)c1ccc([N+](=O)[O-])cc1 | inactive
27 | CCN(C(=O)COC(=O)c1ccc([N+](=O)[O-])o1)c1cccc2ccccc12 | inconclusive: 35.5 µM [inhibitor, single point]
28 | O=c1c2c3c(sc2nc(N2CCNCC2)n1CCc1ccccc1)CCCCC3 | inactive
29 | COc1ccc(Br)cc1C=NNS(=O)(=O)c1ccc(C)cc1 | inconclusive: 35.5 µM [inhibitor, single point]
30 | Cc1cc(-n2c(SCC(=O)NCCC3=CCCCC3)nc3n[nH]c(C)c3c2=N)ccc1Cl | inconclusive: 12.6 µM [inhibitor, partial curve, poor fit]
31 | CCOC(=O)CC(NS(=O)(=O)c1ccc2[nH]c3c(c2c1)CCCC3)c1ccccc1Cl (centres undefined) | active: 20 µM
32 | CCCCOc1ccc(CSc2nc(C)[nH]c2[N+](=O)[O-])cc1[N+](=O)[O-] | inconclusive: 10 µM [inhibitor, partial curve, poor fit]
33 | CC(C)OCCCNC(=O)c1ccc2c(c1)N(Cc1c(F)cccc1Cl)C(=O)c1ccccc1S2 | inconclusive: 3.55 µM [inhibitor, single point]
34 | Cn1c(C=O)c(C#Cc2ccccc2)c2ccccc21 | inconclusive: 25.1 µM [inhibitor, single point]
35 | Cc1ccc(Oc2c(C(F)(F)F)oc3c(CN4CCCCC4C)c(O)ccc3c2=O)cc1 (centres undefined) | inconclusive: 31.6 µM [inhibitor, partial curve, poor fit]
36 | COc1ccc(C(=O)NCC(c2cccnc2)N2CCc3ccccc32)cc1 (centres undefined) | inconclusive: 8.91 µM [inhibitor, partial curve, poor fit]
37 | Cc1ccc(Nc2c(-c3c[nH]c4ccccc34)nc3cc(C)ccn23)cc1 | inconclusive: 35.5 µM [inhibitor, single point]
38 | CCc1ccc(OCc2n[nH]c(=S)n2C(C)CCCC(C)C)cc1 (centres undefined) | inconclusive: 15.8 µM [inhibitor, partial curve, poor fit]
39 | Cc1ccc2cc(C=C(C#N)C#N)c(N3CCCCC3)nc2c1 | inconclusive: 35.5 µM [inhibitor, single point]
40 | Cc1ccccc1COc1cccn2c(N(C)C(=O)CCC3CCCC3)c(C)nc12 | inconclusive: 28.2 µM [inhibitor, single point]
41 | S=C(NCCc1ccc(Cl)cc1)Nc1ccc(Cl)cc1Cl | inconclusive: 14.1 µM [inhibitor, partial curve, poor fit]
42 | Fc1ccccc1-c1nc2nc3ccccc3nc2n1CC1CCCO1 (centres undefined) | inactive
43 | COc1cc(OC)c(OC)cc1/C=C/c1nc2cc3ccccc3cc2c(=O)n1-c1ccc(Cl)cc1 | inconclusive: 1 µM [inhibitor, partial curve, poor fit]
44 | CN(C)CCNC(C(=O)Nc1cccc(S(=O)(=O)N2CCOCC2)c1)c1ccccc1 (centres undefined) | inactive
45 | Nc1nc2ccc(NC(=O)c3ccco3)cc2s1 | inactive
46 | Cc1cc(C)c(S(=O)(=O)N2CCN(C(=O)c3ccc4c(c3)OCO4)CC2)c(C)c1 | inconclusive: 6.31 µM [inhibitor, single point]

Row | Structure (SMILES) | Potency
47 | Cc1ccc(OC(C)C(=O)Nc2nonc2-c2ccc(Br)cc2)cc1C (centres undefined) | inconclusive: 35.5 µM [inhibitor, single point]
48 | c1ccc(CNc2c3ccccc3nc3ccccc23)cc1 | inconclusive: 3.98 µM [inhibitor, partial curve, poor fit]
49 | O=C(Nc1ccccc1)c1nnsc1S(=O)(=O)c1ccc(Cl)cc1 | inconclusive: 31.6 µM [inhibitor, single point]
50 | CCOc1ccc(S(=O)(=O)Nc2cc(SCC(=O)O)c(O)c3ccccc23)cc1 | active: 5.01 µM
51 | O=C(OCC(=O)N1CCN(c2ccccc2)CC1)c1ccc(Cl)nc1 | inconclusive: 35.5 µM [inhibitor, single point]
52 | CCOC(=O)Cc1ccc(NC(=O)N2CCOc3ccc(C)cc32)cc1 | inconclusive: 15.8 µM [inhibitor, single point]
53 | CCOC(=O)c1cc(-c2csc(-c3cccc(Cl)c3)n2)on1 | inactive
54 | CCCCN(C)CCCNC(=O)C1CCN(c2nc3ccc(CC)cc3s2)CC1 | inconclusive: 35.5 µM [inhibitor, single point]
55 | O=C(NCc1ccc(Cl)nc1)c1csc(COCCO)n1 | inactive
56 | O=C(NCC1COc2ccccc2O1)c1ccc(Cl)c(S(=O)(=O)N2CCCC2)c1 (centres undefined) | inconclusive: 35.5 µM [inhibitor, single point]
57 | CC(=O)C1=CCC(c2ccc(C)cc2)N(S(=O)(=O)c2ccc(C)cc2)C1 (centres undefined) | inconclusive: 11.2 µM [inhibitor, single point]
58 | CC1Cc2cc(S(=O)(=O)N3CCC(C(=O)Nc4ccccn4)CC3)ccc2N1C(=O)C1CCC1 (centres undefined) | inactive
59 | Cc1ccc(CN2C(=O)c3ccccc3NC2c2ccccn2)cc1 (centres undefined) | inconclusive: 6.31 µM [inhibitor, single point]
60 | c1ccc(CN2CCN(Cc3c[nH]c4ccccc34)CC2)cc1 | inactive
61 | FC(F)(F)c1ccccc1NC(=S)N1CCN(c2ccccn2)CC1 | inconclusive: 35.5 µM [inhibitor, single point]
62 | COc1ccc(N2CCN(C(=O)c3ccc(N(C)S(=O)(=O)c4ccc(OC)cc4)cc3)CC2)cc1 | inconclusive: 0.447 µM [inhibitor, full curve, poor fit]
63 | CSc1ncc(CN2CCc3c([nH]c4ccccc34)C2C(C)(C)C)cn1 (centres undefined) | inconclusive: 12.6 µM [inhibitor, partial curve, poor fit]
64 | CCc1ccc(C(=O)Nc2ccc(OC)c(S(=O)(=O)N3CCCCC3)c2)cc1 | inconclusive: 7.08 µM [inhibitor, full curve]
65 | Cc1nc2ccc(NC(=O)c3cncc(Br)c3)cc2s1 | inactive
66 | COc1ccc(N2CCN(S(=O)(=O)CCNC(=O)Cc3ccc(Cl)cc3)CC2)cc1 | inactive
67 | O=C1NC(=S)SC1=Cc1ccc(Cl)cc1 | inconclusive: 35.5 µM [inhibitor, single point]
68 | COc1cccc(CN(C)C(=O)C23CC4CC(CC(NC(C)=O)(C4)C2)C3)c1OC | inactive
69 | O=C(CCC(=O)NNC(=O)Nc1ccc(Cl)cc1)NCc1ccccc1 | inconclusive: 14.1 µM [inhibitor, single point]
